# “And” between values parts separate entries of the source, which are not always exact repeats. Equal entries are not always repeated. About 18,000 (5.8%) of roughly 310,000 compounds were called active. The shares of active, inactive and inconclusive entries below differ from those in the screen. Calls come from the whole dose curve; as a rule, active = well fitted inhibition curve with a large enough effect; inconclusive = small, poorly fitted or top-dose-only effect, or another doubt; inactive = no such curve, though single readings can be large or run the other way. Potencies of inconclusive entries are left out as doubtful fits.
# Test: Primary qHTS for delayed death inhibitors of the malarial parasite plastid, 48 hour incubation
# Conditions: P. falciparum luciferase growth in erythrocytes; series mostly up to 28.7 µM
# Procedure, shortened: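 Luminescence readout; reporter = integrated firefly luciferase in P. falciparum. RBC culture at 2% hematocrit, 0.1% parasitemia final, 37 C/5% CO2; decreased signal taken as growth inhibition.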
# Potency is the fitted concentration of half-maximal effect; tags give direction and shape of the fitted curve.
row,Compound,Potency
1,Cc1ccc(CN2CCC(n3nccc3NC(=O)CCOc3ccccc3)CC2)cc1C,"inconclusive [inhibitor, single point]"
2,COC(=O)c1ccc(NC(=O)CCS(=O)(=O)c2ccc(Br)cc2)cc1,"inconclusive [inhibitor, partial curve, poor fit]"
3,Cc1c(NC2(C#N)CCCC2)c(=O)n(-c2ccccc2)n1C,inactive
4,Cc1ccc(C)c(-c2[nH]ncc2CN2CCCC(CO)(Cc3ccccc3C)C2)c1 (configuration not stated),"inconclusive [inhibitor, partial curve, poor fit]"
5,CC(=O)N1CCc2cc(S(=O)(=O)NC(CC(C)C)C(=O)Nc3ccc4c(c3)OCCO4)ccc21 (configuration not stated),inactive
6,COc1ccc(N(C)S(=O)(=O)c2cccc(C(=O)N(C)Cc3ccc(C)o3)c2)cc1,"inconclusive [inhibitor, single point]"
7,COc1ccccc1NS(=O)(=O)c1cc(NC(=O)CNC(=O)c2cc(C)cc(C)c2)ccc1C,"inconclusive [inhibitor, single point]"
8,Cc1cc(C)c(OCC(=O)NCCCn2nc(C)cc2C)c(C)c1,"inconclusive [inhibitor, partial curve, poor fit]"
9,CC(OC(=O)c1ccc2c(=O)n3c(nc2c1)CCCCC3)C(=O)Nc1ccc(F)cc1Cl (configuration not stated),inactive
10,CC(=O)c1cccc(N(C(=O)c2ccco2)C(C(=O)NC2CCCC2)c2ccccc2F)c1 (configuration not stated),"inconclusive [inhibitor, partial curve]"
11,O=C(NNC(=O)C(c1ccccc1)c1ccccc1)c1ccccn1,active: 3.7 µM
12,CCOCc1nnc(NC(=O)COc2ccc3c(c2)OCO3)s1,inactive
13,COc1ccc(N2C(=O)C(Cl)=C(Nc3c(C)n(C)n(-c4ccccc4)c3=O)C2=O)cc1,"inconclusive [inhibitor, partial curve]"
14,CC(=O)NCCc1nc2ccccc2n1Cc1cccc(C)c1,"inconclusive [inhibitor, single point]"
15,O=c1c2c(nc3c(-c4ccc(Cl)cc4)c[nH]n13)CCC2,active: 10.4 µM
16,CCOc1ccc(S(=O)(=O)Nc2cccc(C(=O)NCCCn3ccnc3)c2)cc1,"inconclusive [inhibitor, single point]"
17,O=C(c1ccco1)N1CCC(c2nc3c(nnn3Cc3c(Cl)cccc3Cl)c(=O)[nH]2)CC1,"inconclusive [inhibitor, partial curve]"
18,CCCCc1cc(=O)oc2cc(C)cc(OCC(=O)NCCN3CCOCC3)c12,"inconclusive [inhibitor, single point]"
19,CC(=O)OC(COC1C[C@@H]2CC[C@@]1(C)C2(C)C)C[N+]1(C)CCCCC1 (some centres not stated),active: 3.29 µM
20,Cc1ccc(-c2cc(C(=O)N(C)CC(=O)Nc3ccccc3Br)c3ccccc3n2)o1,"inconclusive [inhibitor, partial curve]"
21,CCOC(=O)c1c(NC(=O)Cn2cnc3sc(C)c(-c4ccccc4)c3c2=O)sc(C)c1C,"inconclusive [inhibitor, partial curve, poor fit]"
22,CSc1ccc(/C=N/NC(=O)C[n+]2ccccc2)cc1,"inconclusive [inhibitor, partial curve]"
23,NC(=O)C(NC(=O)OCc1ccccc1)c1ccccc1 (configuration not stated),"inconclusive [inhibitor, single point]"

row,Compound,Potency
1,O=c1oc2c(O)c(O)cc3c(=O)oc4c(O)c(O)cc1c4c23,active: 3.01 µM and active: 5.22 µM
2,Cc1ccc(S(=O)(=O)N(c2ccc(Br)cc2)C2C=CS(=O)(=O)C2)cc1 (configuration not stated),"inconclusive [inhibitor, single point]"
3,CCOC(=O)c1cc(CC)sc1NC(=O)CN1CCN(C(=O)C2CCCO2)CC1 (configuration not stated),"inconclusive [inhibitor, single point]"
4,O=[N+]([O-])c1ccc(CN2CCC(Cc3ccccc3)CC2)cc1,"inconclusive [inhibitor, full curve, poor fit]"
5,Cc1cccc(OCCNc2cc(N3CCOCC3)ccc2[N+](=O)[O-])c1,"inconclusive [inhibitor, single point]"
6,CC(=O)c1ccc(N2CCN(C(=O)c3cc(-c4ccc5c(c4)OCO5)nc4ccccc34)CC2)cc1,active: 6.57 µM
7,O=c1c2ccccc2nc(/C=C/c2ccc(F)cc2)n1-c1ccccc1O,active: 13.1 µM
8,Cc1cc2c(cc(C(=O)OC(C(=O)NC3CCCCC3)C(C)C)n2C)o1 (configuration not stated),"inconclusive [inhibitor, single point]"
9,COCCCN(Cc1cccs1)S(=O)(=O)c1csc(C(N)=O)c1,inactive
10,CCOC(=O)C(=O)NCC(c1cccs1)S(=O)(=O)c1ccc(F)cc1 (configuration not stated),"inconclusive [inhibitor, partial curve, poor fit]"
11,CN(C)S(=O)(=O)c1ccc(Cl)c(C(=O)Nc2cccc([N+](=O)[O-])c2)c1,"inconclusive [inhibitor, single point]"
12,CCCc1nnc(NC(=O)C2CCN(C(=O)C3CC(=O)N(c4ccc(C)cc4)C3)CC2)s1 (configuration not stated),"inconclusive [inhibitor, single point]"
13,FC(F)(F)C(Oc1nc(Nc2ccc(Cl)cc2)nc(N2CCOCC2)n1)C(F)(F)F,"inconclusive [inhibitor, single point]"
14,COc1cc(/C=N/NC(=O)COc2cccc(F)c2)ccc1OS(=O)(=O)c1ccc(C)cc1,"inconclusive [inhibitor, single point]"
15,Cc1cc(C(=O)Nc2ccccc2C)c2ccccc2n1,inactive
16,CN(C(=O)Cn1cc([N+](=O)[O-])ccc1=O)C1CCCCC1,"inconclusive [inhibitor, single point]"
17,COc1ccc(C(=O)NN=C2CCCC2)c(OC)c1,inactive
18,N#CCSc1nc2scc(-c3cccs3)c2c(=O)n1CCc1ccccc1,inactive
19,COc1ccc(CCNS(=O)(=O)c2cc3c4c(c2)C(C)C(=O)N4CCC3)cc1OC (configuration not stated),inactive
20,C=CCN1C(=O)/C(=C2/C(=O)N(CC(=O)O)c3ccccc32)S/C1=N/c1nccs1,inactive
21,COc1ccc(-n2nnnc2S(=O)(=O)Cc2ccc(C(=O)O)cc2)cc1,"inconclusive [inhibitor, partial curve, poor fit]"
22,O=C(N/N=C/c1ccc2c(c1)OCO2)c1ccc(COCC(F)(F)C(F)F)cc1,"inconclusive [inhibitor, partial curve]"
23,NC(=O)C(c1ccc(Cl)cc1Cl)c1ncc(C(F)(F)F)cc1Cl (configuration not stated),inactive

row,Compound,Potency
1,CCOC(=O)c1c(NC(=O)/C=C/c2ccc3c(c2)OCO3)sc(C)c1C,"inconclusive [inhibitor, full curve, poor fit]"
2,S=c1[nH]nc(-c2ccc(Cl)cc2)n1/N=C/C=C/c1ccco1,inactive
3,CCOC(=O)CNC(=S)SC,"inconclusive [inhibitor, single point]"
4,Cc1csc(SCC(=O)c2ccc(S(=O)(=O)N3CCOCC3)cc2)n1,"inconclusive [inhibitor, partial curve, poor fit]"
5,N#C/C(=C\c1ccccc1[N+](=O)[O-])C(=O)NCc1ccccc1,active: 14.7 µM
6,Cc1cccc(NC(=S)N2CCCN(c3ncccc3[N+](=O)[O-])CC2)c1,"inconclusive [inhibitor, single point]"
7,COc1ccc(NC(=O)COc2cccc3c2CCNC3=O)cc1,inactive
8,O=C1c2cnc3nc(SCc4ccc(Cl)cc4)nn3c2CC2c3ccccc3CCN12 (configuration not stated),inactive
9,Cc1ccc(S(=O)(=O)N(C)C)cc1-n1c(SCC(=O)Nc2ccc(F)cc2Cl)nc2ccccc2c1=O,active: 13.1 µM
10,CN1c2ccccc2C(C)(C)C12C=Nc1c(ccc3ccccc13)O2 (configuration not stated),"inconclusive [inhibitor, single point]"
11,CCOc1cc2[nH]c(=S)n(CCN3CCC(C)CC3)c(=O)c2cc1OCC,"inconclusive [inhibitor, partial curve, poor fit]"
12,COC(=O)c1ccc(NC(=O)C2CC(=O)N(c3ccc(C)cc3)C2)cc1 (configuration not stated),inactive
13,CC1CSc2ccccc2NC1=S (configuration not stated),inactive
14,O=C(N/N=C/C(Br)=C/c1ccccc1)NC1CCCCC1,"inconclusive [inhibitor, partial curve, poor fit]"
15,Cc1sc2ncnc(N3CCC(C(=O)NNC(=O)COc4ccccc4F)CC3)c2c1C,"inconclusive [inhibitor, single point]"
16,C[C@H](NC(=O)C1CC(=O)N(c2ccc3c(c2)OCCO3)C1)C(=O)NCc1ccco1 (some centres not stated),inactive
17,COCCCNC(=O)C(C#N)c1nc2ccccc2nc1N1CCN(Cc2ccccc2)CC1 (configuration not stated),"inconclusive [inhibitor, full curve, poor fit]"
18,CCOc1cccc2cc(C(=O)NCc3ccccc3Cl)c(=O)oc12,"inconclusive [inhibitor, partial curve, poor fit]"
19,CC(C)OC(=O)Nc1ccc2c(c1)N(C(=O)CCN1CCN(CCO)CC1)c1ccccc1CC2,"inconclusive [inhibitor, partial curve]"
20,CC1=C/C(=C(/c2cc(C)c(O)c(Br)c2)c2ccccc2S(=O)(=O)O)C=C(Br)C1=O,"inconclusive [inhibitor, partial curve]"
21,COc1cc(NC(=O)c2cccc(Br)c2)nc(OC)n1,inactive

# Source: PubChem BioAssay AID504832 (National Center for Advancing Translational Sciences (NCATS), 2011)
